The campaign covered roughly 410,000 compounds. About 6,400 (1.6%) were called active. Inconclusive means that the source gave no clear call. Such entries were picked first, then a sample of the others. Calls come from the whole dose curve; as a rule, active = well fitted inhibition curve with a large enough effect; inconclusive = small, poorly fitted or top-dose-only effect; inactive = no such curve, though single readings can be large or run the other way. No potency is given beside an inconclusive call; the fits are too rough.
Molecular target: Glucagon-like peptide 1 receptor (Homo sapiens) (UniProt P43220)
Assay: qHTS of GLP-1 Receptor Inverse Agonists (Inhibition Mode); note: nearly all actives have a fitted effect of over 55% in size
Settings: HEK293 GLP-1R CRE-luciferase, luminescence, 24 h, GLP-1R form is constitutively active; series mostly up to 38.3 µM
Procedure, shortened: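 Seeding at 200 cells/uL, 12 h culture, 24 hr compound treatment, then luciferase reagent and a luminescence read; cells are HEK293 stably expressing a constitutively active GLP-1R plus cAMP-responsive luciferase.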
Potency is the fitted concentration of half-maximal effect; tags give direction and shape of the fitted curve.

UniProt P43220, sequence (P43220 whole entry, looked up): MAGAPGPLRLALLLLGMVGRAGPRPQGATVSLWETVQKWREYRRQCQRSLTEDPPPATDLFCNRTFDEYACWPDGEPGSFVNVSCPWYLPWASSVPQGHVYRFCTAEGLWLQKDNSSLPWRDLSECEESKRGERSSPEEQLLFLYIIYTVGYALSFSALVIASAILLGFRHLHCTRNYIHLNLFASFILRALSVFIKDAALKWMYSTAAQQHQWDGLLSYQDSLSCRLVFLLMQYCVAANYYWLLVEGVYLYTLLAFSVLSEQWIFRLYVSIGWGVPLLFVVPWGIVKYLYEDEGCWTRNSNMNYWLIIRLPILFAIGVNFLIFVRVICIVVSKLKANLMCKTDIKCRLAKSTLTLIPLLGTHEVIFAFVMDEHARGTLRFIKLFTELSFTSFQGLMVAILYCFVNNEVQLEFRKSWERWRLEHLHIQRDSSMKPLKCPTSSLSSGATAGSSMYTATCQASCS

Structure (SMILES) | Potency
CCOC(=O)c1cnc2ccc(C)cc2c1Sc1ccc(F)cc1 | inconclusive [inhibitor, single point]
Cc1sc2nc(CN(Cc3ccccc3)C(=O)NC3CCCCC3)[nH]c(=O)c2c1C | inconclusive [inhibitor, single point]
CCN(c1ccc2c(c1)OCO2)S(=O)(=O)c1cc(Br)cc2c1N(C(=O)C1CC1)CC2 | inconclusive [inhibitor, partial curve, poor fit]
CC1C(c2ccccc2)N(C)C(c2ccccc2)CC1(O)c1ccc(F)cc1 (stereo not drawn) | inconclusive [inhibitor, partial curve, poor fit]
C[C@@H]1CC2=C(C(=O)OC(C)(C)O2)[C@@H](C2CC2)O1 | inactive
CC(C)(C)C1CCC(=NNc2nc3ccccc3[nH]2)CC1 (stereo not drawn) | inconclusive [inhibitor, full curve]
O=C(c1cc(-c2ccccc2)on1)N1CCCc2ccccc21 | inconclusive [inhibitor, single point]
Cc1ccc(C(=O)NC(C)CCc2ccccc2)cc1S(=O)(=O)N1CCOCC1 (stereo not drawn) | inactive
CCCCNC(=O)C1C(c2ccc(C(F)(F)F)cc2)=Nc2ccccc2N1C(=O)c1cccc2ccccc12 (stereo not drawn) | inconclusive [inhibitor, partial curve, poor fit]
O=C(c1cccc(S(=O)(=O)NCc2ccccc2)c1)N1CCCC(C(F)(F)F)C1 (stereo not drawn) | inconclusive [inhibitor, single point]
CCc1ccccc1N=C1S/C(=C/c2ccccc2OCC(=O)N2CCOCC2)C(=O)N1C | inconclusive [inhibitor, partial curve, poor fit]
CN1/C(=C\C=N\O)C(C)(C)c2ccccc21 | inactive
O=C(CN1C(=O)CNC1=O)Nc1cc(Cl)cc(Cl)c1 | inconclusive [inhibitor, partial curve, poor fit]
CCCOc1ccc(C(CC(=O)O)NC(=O)CC(c2ccccc2)c2ccccc2)cc1 (stereo not drawn) | inconclusive [inhibitor, single point]
O=C(NNC(=O)c1ccccc1OCc1ccccc1)c1ccccc1F | inconclusive [inhibitor, single point]
COc1ccccc1N1CCN(c2ncc(C(=O)N3CCN(c4cccc(Cl)c4)CC3)c3ccccc23)CC1 | inconclusive [inhibitor, partial curve, poor fit]
O=C(COc1ccccc1Cl)NCC1(N2CCOCC2)CCCCC1 | inconclusive [inhibitor, single point]
Cn1c2c(c(=O)n(C)c1=O)C(C(F)(F)F)(C(F)(F)F)N=C(c1ccc(Cl)cc1)N2 | inconclusive [inhibitor, full curve, poor fit]
O=C(NC1CCCCCCC1)c1cc(F)c(F)cc1Cl | inconclusive [inhibitor, single point]

Structure (SMILES) | Potency
CCN(CC)C(=O)CSC1=N/C(=C/c2ccco2)C(=O)N1c1ccc(OC)c(Cl)c1 | inconclusive [inhibitor, single point]
CCOc1ccc(CCN2C(=O)C(=O)N([C@@H](Cc3ccccc3)CN3CCC[C@H]3CN3C(=O)C(=O)NC[C@@H]3CC(C)C)C[C@@H]2Cc2ccc(O)cc2)cc1 | inconclusive [inhibitor, single point]
NS(=O)(=O)c1cc(C(=O)NCCOc2ccccc2)c(Cl)cc1Cl | inconclusive [inhibitor, partial curve, poor fit]
CCOc1ccc(NC(=O)CCS(=O)(=O)c2ccc3c(c2)CCCN3C(C)=O)cc1 | inconclusive [inhibitor, single point]
Cc1ccc(N(C(=O)c2snc(C(N)=O)c2N)C(C(=O)NC2CCCC2)c2ccco2)cc1 (stereo not drawn) | inconclusive [inhibitor, single point]
C[C@@]12C(=O)N(c3ccc(F)cc3)C(=O)N1[C@@H]1c3ccccc3OC[C@@H]1[C@H]2c1ccccc1 | active: 10 µM
O=C(/C(=N/N=C/c1ccc(O)c(O)c1)c1ccccc1)c1ccccc1 | inconclusive [inhibitor, partial curve, poor fit]
Cc1ccccc1-c1nc(CS(=O)(=O)CC(=O)NCC(C)c2ccccc2)c(C)o1 (stereo not drawn) | inconclusive [inhibitor, single point]
COc1ccc(-c2ccccc2[C@H]2[C@@H]3C=CC[C@@H](C)[C@@H]3C(=O)N2Cc2ccccc2)cc1 | active: 8.91 µM
CC(Oc1ccc(F)cc1)C(=O)/C=C\N(C)C (stereo not drawn) | inconclusive [inhibitor, single point]
O=C(CSc1nnc(-c2cccs2)n1Cc1ccccc1)N1CCc2ccccc2C1 | inconclusive [inhibitor, partial curve]
COc1ccc(NC(C)c2cc(Cl)ccc2O)cc1 (stereo not drawn) | inactive
COC(=O)c1c(NC(=O)COC(=O)c2ccc(NC(=O)CC#N)cc2)sc2c1CCCCC2 | inconclusive [inhibitor, single point]
CCOc1cccc(-c2c(C(=O)N/N=C/c3ccc(Br)cc3)nnn2-c2nonc2N)c1 | inconclusive [inhibitor, partial curve, poor fit]
O=S1(=O)CCOC[C@H](Cc2ccccc2)N1Cc1ccccc1Br | inconclusive [inhibitor, single point]
CCOC(=O)c1c(C)[nH]c(C(=O)CN(C)CC(=O)Nc2ccccc2C(F)(F)F)c1C | inconclusive [inhibitor, single point]
Cc1ccccc1NC(=O)CNc1ccc(Cl)c(C(F)(F)F)c1 | inconclusive [inhibitor, single point]
Cc1nc(Nc2ccc(Cl)cc2Cl)sc1C(=O)Nc1ccccc1 | active: 10 µM
CCN(c1cccc(C)c1)S(=O)(=O)c1ccc2[nH]cc(C(=O)NCCCOC)c(=O)c2c1 | inactive

Reference: PubChem BioAssay AID624417 (National Center for Advancing Translational Sciences (NCATS), 2012)
